# In publication PMC4336329 (PLoS ONE, 2015):
# In all, about 310,000 compounds went through this assay and about 14,000 (4.5%) showed an effect of 50% or more. The effect is printed as a negative number. The list shows a part of the results.
# Molecular target: human ether-à-go-go-related gene (hERG) potassium channel (human, UniProt Q12809)
# Assay: primary screen, population patch clamp on CHO cells stably expressing hERG
# 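Note: peak tail current of the secondary pulse compared with the same well before compound.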
# human ether-à-go-go-related gene (hERG) potassium channel, sequence (Q12809 whole entry, looked up): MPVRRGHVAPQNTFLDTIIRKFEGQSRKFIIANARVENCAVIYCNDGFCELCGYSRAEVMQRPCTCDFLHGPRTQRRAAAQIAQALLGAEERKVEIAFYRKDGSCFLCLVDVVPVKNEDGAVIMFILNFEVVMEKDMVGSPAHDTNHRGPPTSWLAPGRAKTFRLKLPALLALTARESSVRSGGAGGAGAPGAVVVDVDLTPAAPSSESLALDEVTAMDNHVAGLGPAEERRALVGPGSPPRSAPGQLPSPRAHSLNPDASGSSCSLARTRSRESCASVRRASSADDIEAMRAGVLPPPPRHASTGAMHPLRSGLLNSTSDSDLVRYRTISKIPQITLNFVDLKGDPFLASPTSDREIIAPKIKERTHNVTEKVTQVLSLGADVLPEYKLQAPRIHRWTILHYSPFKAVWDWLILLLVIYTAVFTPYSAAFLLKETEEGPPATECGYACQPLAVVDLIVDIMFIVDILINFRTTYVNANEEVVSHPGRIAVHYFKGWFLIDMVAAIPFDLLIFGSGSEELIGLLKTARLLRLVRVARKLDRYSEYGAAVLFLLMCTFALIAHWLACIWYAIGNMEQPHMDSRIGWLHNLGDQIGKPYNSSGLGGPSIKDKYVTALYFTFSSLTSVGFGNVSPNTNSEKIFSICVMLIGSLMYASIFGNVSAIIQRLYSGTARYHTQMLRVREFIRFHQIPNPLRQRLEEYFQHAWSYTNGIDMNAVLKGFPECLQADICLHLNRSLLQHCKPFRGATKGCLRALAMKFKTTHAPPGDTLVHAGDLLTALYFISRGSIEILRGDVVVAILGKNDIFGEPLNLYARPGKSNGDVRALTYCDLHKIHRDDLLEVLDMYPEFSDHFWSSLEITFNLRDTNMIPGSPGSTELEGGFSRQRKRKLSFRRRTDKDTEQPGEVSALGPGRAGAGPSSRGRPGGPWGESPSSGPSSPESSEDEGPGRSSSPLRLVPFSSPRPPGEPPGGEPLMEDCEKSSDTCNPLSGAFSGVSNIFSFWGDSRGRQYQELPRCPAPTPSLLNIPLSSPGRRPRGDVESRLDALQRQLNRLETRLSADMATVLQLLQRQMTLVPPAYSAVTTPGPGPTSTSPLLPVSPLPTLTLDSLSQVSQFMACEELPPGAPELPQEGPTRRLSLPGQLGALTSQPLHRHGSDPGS
row,SMILES,"hERG current change (%, negative = inhibition) at 10uM"
1,O=c1oc2ccccc2c(NCCO)c1[N+](=O)[O-],16.5%
2,CCN(CC)CCOC(=O)c1ccc(NC(=O)COc2cc(=O)n(CC)c3ccccc23)cc1,-2.13%
3,COc1ccc(S(=O)(=O)N2CCCC2)cc1OC,14.9%
4,Cc1ccc2c(c1)C1CN(C)CCC1N2S(=O)(=O)c1ccccc1 (stereo not drawn),-32.4%
5,CCCNC(=O)COC(=O)C1CCN(S(=O)(=O)c2ccc3c(c2)OCCO3)CC1,7.17%
6,COc1ccccc1-n1c(CNC(=O)c2ccco2)n[nH]c1=S,25%
7,O=C(CSc1nnc(-c2ccccc2)c(-c2ccccc2)n1)N1CCc2ccccc21,6.08%
8,CCn1c(SCC(=O)c2ccccc2)nnc1-c1cccs1,-14.8%
9,Cc1ccccc1C(=O)NCC(C)NC(=O)c1ccccc1C (stereo not drawn),9.27%
10,CN(CCOc1ccc(Cl)cc1)C(=O)c1cc(S(=O)(=O)N2CCOCC2)ccc1N1CCCC1,-63.7%
11,O=C(Cc1ccc(Cl)cc1)NNC1CC(=O)N(c2ccc3ccccc3c2)C1=O (stereo not drawn),3.98%
12,Cc1cc(Br)ccc1NC(=O)CNC(=O)c1cnn(C)c1,19.6%
13,Cc1ccc(S(=O)(=O)N2CCCCC2)cc1,34.5%
14,CC(C)(C)OC(=O)c1c(N)n(CCCN2CCCC2=O)c2nc3ccccc3nc12,-18.4%
15,CC(=O)Nc1ccc(S(=O)(=O)Nc2ccc3c(c2)OCCO3)cc1Cl,15.5%
16,O=[N+]([O-])c1ccccc1/C=N/NC1=NCCN1,7.6%
17,COc1cc(Cl)c(C)cc1NC(=O)CSc1nnc(-c2cccnc2)n1Cc1ccco1,-56.9%
18,C/C(=N/NC(=O)c1ccc(C)s1)c1cccc(NC(=O)c2ccoc2C)c1,-10.2%
19,[O-][n+]1c2ccccc2cc2ccccc21,4.02%

row,SMILES,"hERG current change (%, negative = inhibition) at 10uM"
1,CCCCC(=O)Nc1nc(C)c(-c2csc(Nc3ccc(Cl)cc3)n2)s1,-7.01%
2,Cc1cccc(NS(=O)(=O)c2cccc(C(=O)NCC(c3ccco3)N3CCCCC3)c2)c1 (stereo not drawn),-27.9%
3,CC1Cc2nc(SCC(=O)Nc3ccccc3F)n(C)c(=O)c2S1 (stereo not drawn),-20.2%
4,CC1CCCN(C(=O)CN2CCC(c3nc4ccc(Cl)cc4[nH]3)CC2)C1 (stereo not drawn),-67.8%
5,CCn1cc(/C=C(\NC(=O)c2ccccc2OC)C(=O)N2CCN(C)CC2)c2ccccc21,0.113%
6,Cc1cc(NC(=O)COc2ccccc2)n(-c2ccccc2)n1,-22.7%
7,CC(=O)OC(C)C(=O)NS(=O)(=O)c1ccc(C)cc1 (stereo not drawn),12.3%
8,COC(c1ccccc1)(c1ccccc1)C(Oc1nccc(C)n1)C(=O)O (stereo not drawn),23.2%
9,COc1ccc(/C(C)=N/N=C2/NC(=O)CC(C(=O)O)S2)cc1F (stereo not drawn),21%
10,Cc1c(C(=O)N2CCCCC2)c(S(=O)(=O)N2c3ccccc3CC2C)c(C)n1C (stereo not drawn),-9.7%
11,O=C(CSc1nnc(Cn2nnc3ccccc32)o1)Nc1ccc(Cl)cc1,11.2%
12,COc1cc(NC(=O)CN2c3cccc4cccc(c34)S2(=O)=O)cc(OC)c1OC,7%
13,Cc1ccc(Cn2cc(SCC(=O)Nc3nccs3)c3ccccc32)cc1,7.21%
14,Nc1cc(=O)[nH]c(SCC(=O)Nc2ccc(S(=O)(=O)N3CCCCC3)cc2)n1,12.6%
15,CCn1nc(NC(=O)CC(C)C)c2cc3cccc(C)c3nc21,15.2%
16,Cc1ccc(NC(=O)c2cc(S(=O)(=O)c3ccccc3)ccc2Cl)cc1,-15.4%
17,O=C(NC1CCSC1=O)c1ccc(Oc2ccc(F)cc2)nc1 (stereo not drawn),11.8%
18,CCCNC(=O)CSc1ccc(S(=O)(=O)N2CCCC2)cn1,6.44%
19,Cc1ccccc1CN(c1ccc(C(=O)N/N=C/c2ccc(OCC(N)=O)cc2)cc1)S(C)(=O)=O,5.85%

row,SMILES,"hERG current change (%, negative = inhibition) at 10uM"
1,Cn1c(=O)c2c(-c3ccc(C(C)(C)C)cc3)n(CC3CCCO3)cc2n(C)c1=O (stereo not drawn),-7.98%
2,N#CC1=C(S)N(c2ccccc2)C2(CCCCC2)NC1=O,4.38%
3,C/C(CCC(C)C)=N\NC(=S)NCc1ccccc1,-17%
4,O=C(O)c1nc2nc(Cl)c(Cl)nc2[nH]1,21.5%
5,COc1ccc2cc(-c3ccccc3)c(=O)oc2c1,18%
6,C=CCSC1=C(C#N)C(c2ccccc2Cl)CC(=O)N1 (stereo not drawn),-3.4%
7,CCN(CC)c1cnn(C/C(=N\OC)c2ccc(Cl)cc2)c(=O)c1Br,-34.4%
8,CCOC(=O)Cn1c(=O)oc2cc(S(=O)(=O)Nc3cc(Cl)ccc3OC)ccc21,-0.0761%
9,Nc1ccccc1SCC(=O)Nc1cccc2ccccc12,11.1%
10,COc1cc(Cl)c(C)cc1NC(=O)CCNC(=O)c1ccco1,9.27%
11,COC1=CC(=O)C(O)=C(CCCCCCC/C=C/CCCCCCCC2=C(O)C(=O)C=C(OC)C2=O)C1=O,-3%
12,O=C(O)c1ccccc1/C=N/NC(=S)NC1CCCCC1,11.4%
13,COc1ccc(-c2cc(C(F)F)n3ncc(C(=O)N4CCc5ccccc54)c3n2)cc1,5.39%
14,Nc1cccn2c(-c3ccc(Cl)c(Cl)c3)cnc12,1.82%
15,COc1ccc(C2(C#N)CCN(C)CC2)cc1.Cl,-18.6%
16,COc1ccccc1CNC(=O)c1oc2ccccc2c1C,-13.1%
17,O=C(/C=C/c1ccc(F)cc1)NCCCN1CCN(CCCNC(=O)/C=C/c2ccc(F)cc2)CC1,-73.2%
18,O=C(Nc1ccccc1NC(=O)C1CCCO1)c1ccco1 (stereo not drawn),-5.46%
19,C=CCn1ccc2c([N+](=O)[O-])cccc2c1=O,-32.2%
